# The supplement of paper PMC8728848
# This is one part of the list.
# B1: Neuropilin-1 (Rattus norvegicus), Q9QWJ9 (protein)
# chain: MERGLPLLCATLALALALAGAFRSDKCGGTIKIENPGYLTSPGYPHSYHPSEKCEWLIQAPEPYQRIMINFNPHFDLEDRDCKYDYVEVIDGENEGGRLWGKFCGKIAPSPVVSSGPFLFIKFVSDYETHGAGFSIRYEIFKRGPECSQNYTAPTGVIKSPGFPEKYPNSLECTYIIFAPKMSEIILEFESFDLEQDSNPPGGVFCRYDRLEIWDGFPEVGPHIGRYCGQKTPGRIRSSSGILSMVFYTDSAIAKEGFSANYSVLQSSISEDFKCMEALGMESGEIHSDQITASSQYGTNWSVERSRLNYPENGWTPGEDSYREWIQVDLGLLRFVTAVGTQGAISKETKKKYYVKTYRVDISSNGEDWITLKEGNKAIIFQGNTNPTDVVFGVFPKPLITRFVRIKPASWETGISMRFEVYGCKITDYPCSGMLGMVSGLISDSQITASNQGDRNWMPENIRLVTSRTGWALPPSPHPYINEWLQVDLGDEKIVRGVIIQGGKHRENKVFMRKFKIAYSNNGSDWKMIMDDSKRKAKSFEGNNNYDTPELRAFTPLSTRFIRIYPERATHSGLGLRMELLGCEVEVPTAGPTTPNGNPVDECDDDQANCHSGTGDDFQLTGGTTVLATEKPTIIDSTIQSEFPTYGFNCEFGWGSHKTFCHWEHDSHAQLRWRVLTSKTGPIQDHTGDGNFIYSQADENQKGKVARLVSPVVYSQSSAHCMTFWYHMSGSHVGTLRVKLHYQKPEEYDQLVWMVVGHQGDHWKEGRVLLHKSLKLYQVIFEGEIGKGNLGGIAVDDISINNHIPQEDCAKPTDLDKKNTEIKIDETGSTPGYEEGKGDKNISRKPGNVLKTLDPILITIIAMSALGVLLGAVCGVVLYCACWHNGMSERNLSALENYNFELVDGVKLKKDKLNPQSNYSEA
# What was measured:
# Assay in all cases: glycan array binding signal (z-score within array); higher = stronger binding
# Conditions in all cases: glycan notation: IUPAC condensed, linker removed
# Neu5Ac(a2-6)Gal(b1-4)Glc = biological target: Neu5Ac(a2-6)Gal(b1-4)Glc
# How it was run: (§1)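 Glycan array data came from 3228 arrays in the Consortium for Functional Glycomics database, and only arrays with an available protein sequence were kept. Glycan names were put into IUPAC-condensed notation, and columns mapping to the same glycan were averaged. The binding signal is a within-array Z-score, averaged across arrays of one protein sequence run at different concentrations or buffers and across linkers. A negative Z-score can be read as non-binding.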
# [1] = biological target: Neu5Ac(a2-6)Gal(b1-4)GlcNAc
# How it was run: as §1
# [2] = biological target: Neu5Ac(a2-6)Gal(b1-4)GlcNAc(b1-2)Man(a1-3)Man(b1-4)GlcNAc(b1-4)GlcNAc
# How it was run: as §1
# [3] = biological target: Neu5Ac(a2-6)Gal(b1-4)GlcNAc(b1-2)Man(a1-3)[Gal(b1-4)GlcNAc(b1-2)Man(a1-6)]Man(b1-4)GlcNAc(b1-4)GlcNAc
# How it was run: as §1
# [4] = biological target: Neu5Ac(a2-6)Gal(b1-4)GlcNAc(b1-2)Man(a1-3)[GlcNAc(b1-2)Man(a1-6)]Man(b1-4)GlcNAc(b1-4)GlcNAc
# How it was run: as §1
# [5] = biological target: Neu5Ac(a2-6)Gal(b1-4)GlcNAc(b1-2)Man(a1-3)[GlcNAc(b1-2)Man(b1-4)GlcNAc(b1-2)Man(a1-6)]Man(b1-4)GlcNAc(b1-4)GlcNAc
# How it was run: as §1
# [6] = biological target: Neu5Ac(a2-6)Gal(b1-4)GlcNAc(b1-2)Man(a1-3)[Man(a1-6)]Man(b1-4)GlcNAc(b1-4)GlcNAc
# How it was run: as §1
# [7] = biological target: Neu5Ac(a2-6)Gal(b1-4)GlcNAc(b1-2)Man(a1-3)[Neu5Ac(a2-6)Gal(b1-4)GlcNAc(b1-2)Man(a1-6)]Man(b1-4)GlcNAc(b1-4)GlcNAc
# How it was run: as §1
# [8] = biological target: Neu5Ac(a2-6)Gal(b1-4)GlcNAc(b1-2)Man(a1-6)Man(b1-4)GlcNAc(b1-4)GlcNAc
# How it was run: as §1
# [9] = biological target: Neu5Ac(a2-6)Gal(b1-4)GlcNAc(b1-2)Man(a1-6)[Gal(b1-4)GlcNAc(b1-2)Man(a1-3)]Man(b1-4)GlcNAc(b1-4)GlcNAc
# How it was run: as §1
# [10] = biological target: Neu5Ac(a2-6)Gal(b1-4)GlcNAc(b1-2)Man(a1-6)[GlcNAc(b1-2)Man(a1-3)]Man(b1-4)GlcNAc(b1-4)GlcNAc
# How it was run: as §1
# [11] = biological target: Neu5Ac(a2-6)Gal(b1-4)GlcNAc(b1-2)Man(a1-6)[Man(a1-3)]Man(b1-4)GlcNAc(b1-4)GlcNAc
# How it was run: as §1
# [12] = biological target: Neu5Ac(a2-6)Gal(b1-4)GlcNAc(b1-3)Gal(b1-3)GlcNAc
# How it was run: as §1
# [13] = biological target: Neu5Ac(a2-6)Gal(b1-4)GlcNAc(b1-3)Gal(b1-4)GlcNAc
# How it was run: as §1
# [14] = biological target: Neu5Ac(a2-6)Gal(b1-4)GlcNAc(b1-3)Gal(b1-4)GlcNAc(b1-3)Gal(b1-4)GlcNAc
# How it was run: as §1
# [15] = biological target: Neu5Ac(a2-6)Gal(b1-4)GlcNAc(b1-3)Gal(b1-4)[Fuc(a1-3)]GlcNAc(b1-3)Gal(b1-4)[Fuc(a1-3)]GlcNAc
# How it was run: as §1
# [16] = biological target: Neu5Ac(a2-6)Gal(b1-4)GlcNAc(b1-3)GalNAc
# How it was run: as §1
# [17] = biological target: Neu5Ac(a2-6)Gal(b1-4)GlcNAc6S
# How it was run: as §1
# Neu5Ac(a2-6)GalNAc = biological target: Neu5Ac(a2-6)GalNAc
# How it was run: as §1
# [18] = biological target: Neu5Ac(a2-6)GalNAc(b1-4)GlcNAc
# How it was run: as §1
# [19] = biological target: Neu5Ac(a2-6)GlcNAc(b1-4)GlcNAc
# How it was run: as §1
# [20] = biological target: Neu5Ac(a2-6)GlcNAc(b1-4)GlcNAc(b1-4)GlcNAc
# How it was run: as §1
# Neu5Ac(a2-8)Neu5Ac = biological target: Neu5Ac(a2-8)Neu5Ac
# How it was run: as §1
# [21] = biological target: Neu5Ac(a2-8)Neu5Ac(a2-3)Gal(b1-4)Glc
# How it was run: as §1
# [22] = biological target: Neu5Ac(a2-8)Neu5Ac(a2-3)[GalNAc(b1-4)]Gal(b1-4)Glc
# How it was run: as §1
# [23] = biological target: Neu5Ac(a2-8)Neu5Ac(a2-8)Neu5Ac
# How it was run: as §1
# [24] = biological target: Neu5Ac(a2-8)Neu5Ac(a2-8)Neu5Ac(a2-3)Gal(b1-4)Glc
# How it was run: as §1
# [25] = biological target: Neu5Ac(a2-8)Neu5Ac(a2-8)Neu5Ac(a2-3)[GalNAc(b1-4)]Gal(b1-4)Glc
# How it was run: as §1
# [26] = biological target: Neu5Ac(a2-8)Neu5Ac(a2-8)Neu5Ac(a2-8)Neu5Ac(a2-3)[GalNAc(b1-4)]Gal(b1-4)Glc
# How it was run: as §1
# [27] = biological target: Neu5Ac(b2-6)Gal(b1-4)GlcNAc
# How it was run: as §1
# Neu5Ac(b2-6)GalNAc = biological target: Neu5Ac(b2-6)GalNAc
# How it was run: as §1
# [28] = biological target: Neu5Ac9Ac(a2-3)Gal(b1-3)GlcNAc
# How it was run: as §1
# [29] = biological target: Neu5Ac9Ac(a2-3)Gal(b1-4)GlcNAc
# How it was run: as §1
# [30] = biological target: Neu5Ac9Ac(a2-6)Gal(b1-4)GlcNAc
# How it was run: as §1
# [31] = biological target: Neu5Gc(a2-3)Gal(b1-3)GlcNAc
# How it was run: as §1
# [32] = biological target: Neu5Gc(a2-3)Gal(b1-3)[Fuc(a1-4)]GlcNAc
# How it was run: as §1
# Neu5Gc(a2-3)Gal(b1-4)Glc = biological target: Neu5Gc(a2-3)Gal(b1-4)Glc
# How it was run: as §1
# [33] = biological target: Neu5Gc(a2-3)Gal(b1-4)GlcNAc
# How it was run: as §1
# [34] = biological target: Neu5Gc(a2-3)Gal(b1-4)[Fuc(a1-3)]GlcNAc
# How it was run: as §1
# [35] = biological target: Neu5Gc(a2-6)Gal(b1-4)GlcNAc
# How it was run: as §1
# Neu5Gc(a2-6)GalNAc = biological target: Neu5Gc(a2-6)GalNAc
# How it was run: as §1
# [36] = biological target: Neu5Gc(b2-6)Gal(b1-4)GlcNAc
# How it was run: as §1
binder,measurement,setting,value
B1,glycan array binding signal (z-score),Neu5Ac(a2-6)Gal(b1-4)Glc,-0.329
same,glycan array binding signal (z-score),[1],-0.267
same,glycan array binding signal (z-score),[2],-0.309
same,glycan array binding signal (z-score),[3],-0.15
same,glycan array binding signal (z-score),[4],-0.223
same,glycan array binding signal (z-score),[5],-0.316
same,glycan array binding signal (z-score),[6],-0.165
same,glycan array binding signal (z-score),[7],-0.229
same,glycan array binding signal (z-score),[8],-0.211
same,glycan array binding signal (z-score),[9],-0.223
same,glycan array binding signal (z-score),[10],-0.255
same,glycan array binding signal (z-score),[11],-0.073
same,glycan array binding signal (z-score),[12],-0.267
same,glycan array binding signal (z-score),[13],-0.308
same,glycan array binding signal (z-score),[14],-0.034
same,glycan array binding signal (z-score),[15],-0.262
same,glycan array binding signal (z-score),[16],-0.232
same,glycan array binding signal (z-score),[17],-0.311
same,glycan array binding signal (z-score),Neu5Ac(a2-6)GalNAc,-0.181
same,glycan array binding signal (z-score),[18],-0.265
same,glycan array binding signal (z-score),[19],-0.287
same,glycan array binding signal (z-score),[20],-0.33
same,glycan array binding signal (z-score),Neu5Ac(a2-8)Neu5Ac,-0.194
same,glycan array binding signal (z-score),[21],-0.139
same,glycan array binding signal (z-score),[22],-0.317
same,glycan array binding signal (z-score),[23],-0.287
same,glycan array binding signal (z-score),[24],-0.336
same,glycan array binding signal (z-score),[25],-0.28
same,glycan array binding signal (z-score),[26],-0.206
same,glycan array binding signal (z-score),[27],-0.253
same,glycan array binding signal (z-score),Neu5Ac(b2-6)GalNAc,-0.211
same,glycan array binding signal (z-score),[28],-0.355
same,glycan array binding signal (z-score),[29],-0.203
same,glycan array binding signal (z-score),[30],-0.015
same,glycan array binding signal (z-score),[31],-0.246
same,glycan array binding signal (z-score),[32],-0.371
same,glycan array binding signal (z-score),Neu5Gc(a2-3)Gal(b1-4)Glc,-0.189
same,glycan array binding signal (z-score),[33],-0.303
same,glycan array binding signal (z-score),[34],-0.24
same,glycan array binding signal (z-score),[35],-0.3
same,glycan array binding signal (z-score),Neu5Gc(a2-6)GalNAc,-0.331
same,glycan array binding signal (z-score),[36],-0.215
